# According to PubChem BioAssay (NCI):
# “And” between values parts separate entries of the source, which are not always exact repeats. Identical values can stand only once.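 In this assay, cells in 96-well plates receive the compound at five concentrations for 48 hours. Endpoints are linearly interpolated between the surrounding concentrations. GI50: concentration for 50% inhibition of growth. TGI is the concentration that stops growth completely.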
# Tested on: NCI-H322M lung
# Assay: inhibition of tumour cell growth, NCI panel, 48 h
smiles,measurement,value
CN1CCN(Cc2ccc(NC(=O)c3cncc(C#Cc4cnc5ccc(NC6CCOCC6)nn45)c3)cc2C(F)(F)F)CC1,GI50,139 nM and 53.9 nM
same,TGI,604 nM and 299 nM
